According to the RNAGym collection of RNA variant scans (doi:10.7554/elife.90254):
Read counts are not given, so values of variants with three or more changes are uncertain.

B1: LINE1-mini (parent)
chain: GGCAGAGCUCAACACAGCGUGGCAAAGUGGCUGUGGCUAGACUGCC

Variants of: B1
Experiment: self-cleavage, relative activity (ratio to wild type); higher = more cleavage; in vitro, sequencing; the parent is a self-cleaving ribozyme

Variant	self-cleavage
GGCAGACCUCAAUACAGCGUGGAAAAGUGGCUGUGACUAGACUGCC	0.3
GGCAGAGCUCAACGAAGCGUGGCAAAGUGGAUGUGGCUAGAAUGCG	0.03
GGCAGAGCUCAACAAAGAGUGUCAAAGUCGCUGUGGCUAGACUGCC	0.04
GGAAGAGCUAAACACAGCGUGGCAAAGUGGCUGUGGUUAGACUGUC	0.01
GGCAGAGCUGAACACAGCGUGACAAAGAAGCUGUGGCUAGACUGCC	0.09
GGCAGAGCUCAACACCGCGUCGCAAAGUGGCUGUGGUUAGACUGGC	0.19
GUCAGAGCUCCACACAGCGUGGCAAAGUGGCUGUGGCUAGACUGAC	0.01
GGCAGAGCUAAACACAGCGUUGCAAAGUGGCUGAGGCUAGACUGCC	0.02
GGCAGCGCUCAACACAGCGUGGCAAAGUGGCUGUAGUAAGACUGCC	0.04
GGCUUAGCUCAACACACCGUGGCAAAAUGGCUGUGGCUAGACUGCC	0.01
GGCAGAGCUCAACACAGCGUGGCAAUGUGGGUGUGGCUGGACUGCU	0.01
GGCAGCGCUCAGCACAGCGUGGCACAGUUGCUGUGGCUAGACUGGC	0.05
GGCAGCGCUCAACAGUGCGUGGCAAAGUGGACGUGGCUAGACUUCC	0.03
GACAGGGCCCAACACAGCGUGGCACAGUGUCUGUGGCCAGACUGCC	0.01
GGCAGAGCUCAACACAGGAUGGCAAAUUGGCUGUGGCUAGACUGCC	0.12
GUCAGAGCUCAAUACAGCGUGUCAAAGUGGCUGUGGCUAGACUGCC	0.01
UGCAGAGCUCAACACAGCGUGGCAAAGGGGCUGUGGCUAGACUUCC	0.04
GGCAGAGCUCAACACAGCGUGACAAAGUGGCAGUCGCUAGACUGAC	0.04
GGCAGAGCUCAAGACAGCGUGGCGAAAUGGCUGUGGCUAGACUGCC	0.21

Variant	self-cleavage
GGCAGAGCUCAGUACAGUGUGGCAAAGUGGAUGUGGCUAGACCGCC	0.02
GGCAGGGCUCAACACAGCGUGGCAAAGUGGCUGUGUCUAGACUUCC	0.03
GGCAGAGCUCAACAAAGCGUGGCAAAGUGGCUAUGGUUAGACUGAC	0.03
GGCAGAGCUAAGCACAGCGUUGCAAAGUGGCUGUGGCUAGACUGCC	0.01
GGCAGACCUCAAUACAUCUUGGCAAAGUGGAUGUGGCUAGACUGCC	0.1
GGCAGAGCUCAACACAGCGAAGCAAAGUGGCUGUGGCUAGACUGAC	1.11
GGCAGAGCGUAACACAGCGUGGCAAAGUGGCUGUGCCUAGACUGCC	0.11
GGCUGAGCUCAACACAGCGUGGCCAAGUGGCUGGGGCUAGACUGCC	0.09
GGCAGAGCUCAGCACAGAGUGGCAAAGUGGCUGUGCCUAGCCAGCC	0.03
GGCAGAGCAAAAGACAGCGUGGAAAAGUGGCUGUGGCUAGACUGCC	0.07
GGCAGAGCUCAAAACAGCGCGGCAAAGUGGCUGUGGCUAGACUUCU	0.01
GGCAGAACUCAACACAGCGAGGCCAAGUGGCAGUGGCUAGACUGCC	0
GUCAGAGCUCUACACAUCGUGGCAACGUGGCUGUGUCGAGACUGCC	0.02
GUGAGAGCUCAACACCGCGUGGCAAAGUGGCUGUGGCUAGACUGGC	0.08
GGCAGAGCUCAACACCGCGUGGCAAAGUGGCUGUAGCUAGUCUGCC	0.01
GGCAGGGCUCAACACAGCGUGGCAAAGUGGCAGGGGCUAGACUGCC	0.02
GGCAAAGCUCAACACAGCGUGGCAUAGUGGCUGUGGCUAGUCUGCC	0.08
GGCAUAGUUCAACACAGCGUGGCAAAGUGGCUGUGGUUAGACUGCC	0.07
GGCAGAGCUCAACACAACGGGGCAAAGUGGCUCUGGUUAGACUGCC	0.01

Variant	self-cleavage
AGCAGAGCUCAACACAGCGUUGCAAAGUGGCUGUGGCUAGACUGCA	1.02
GGCAGAGCUCAACACAGCCUGGCAAAGUGGCUGUGGCUAGCAUGCC	0.02
GGCAGAGCUCAACACAACGUGGCAAACUGGUUGUGGCGAGACUGAC	0
GGCAGAGCCCAACACAGCGUGCCAAAGUGGUUGUGGCUAGACUGCC	0
GGCAGAGCUAAUCACAGCAUGGCAAAGUGGCUGUGGCUAGACUGCC	0.01
GGCAGAGCUCAACACAACGUGGCGAAGUGGCUGUGGCUAGACUGCG	0.09
GGCAGAGCUCAACACAGCGUGGCAAAGAGGCUGUGUCUAGACUGCU	0.05
GGCAGAGCUCAACACAGCGUGGCAAAGUGGCAGUUGCUAGACUGCA	0.07
GGCAGAGCACAACACAGCGUGGCAAAUUGGCUGUCGCUGGACUGCC	0.02
AGCAGAGCUCAACACAGCGUGGCAAAGUGGCCCUGGCUAGACUGCC	0.09
GGCAGAGCGCAACACAGCGUGGCAAAUUGGCUGGGGCUAGACUGCC	0.02
GGCAGAGCUCAACACAGCGUGACAAAGUGGCUGUGGCGUGACCGCC	0.03
GGCAGAGCUCAACACAGCGUGGCAAAGUGGCUCUGCCUAGUCUGCC	0.04
GGCAGAGCGCAACACAGCGUGGCAAAGUGGCUGUGGUGAGACUACC	0
UGCAUAGCUCAAGACAGCGUGGCAAAGUGGCUGUGGCUGGACUGCC	0.16
GGCACAGCUCAACACUGCGUGGCAACGUGGCUGUGGCUAGACUGCC	0.05
GGCAGAGCUCAACACAGCGUCGCAAAGUAGCUGUGGCAAGACUGCC	0.17
GGCAAAGCUUGAUACAGCGUGCCGAAGAGGCUGUGGCUAGACUGCC	0.01
